PMC4336329 (PLoS ONE, 2015)
Screen size: about 310,000 compounds; about 14,000 (4.5%) showed an effect of 50% or more. Effects have a minus sign here. The list shows a part of the results.

These compounds were tested against human ether-à-go-go-related gene (hERG) potassium channel (human, UniProt Q12809) (assay: primary screen, population patch clamp on CHO cells stably expressing hERG).
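Also: peak tail current of the secondary pulse compared with the same well before compound.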

Chain of human ether-à-go-go-related gene (hERG) potassium channel (Q12809 whole entry, looked up): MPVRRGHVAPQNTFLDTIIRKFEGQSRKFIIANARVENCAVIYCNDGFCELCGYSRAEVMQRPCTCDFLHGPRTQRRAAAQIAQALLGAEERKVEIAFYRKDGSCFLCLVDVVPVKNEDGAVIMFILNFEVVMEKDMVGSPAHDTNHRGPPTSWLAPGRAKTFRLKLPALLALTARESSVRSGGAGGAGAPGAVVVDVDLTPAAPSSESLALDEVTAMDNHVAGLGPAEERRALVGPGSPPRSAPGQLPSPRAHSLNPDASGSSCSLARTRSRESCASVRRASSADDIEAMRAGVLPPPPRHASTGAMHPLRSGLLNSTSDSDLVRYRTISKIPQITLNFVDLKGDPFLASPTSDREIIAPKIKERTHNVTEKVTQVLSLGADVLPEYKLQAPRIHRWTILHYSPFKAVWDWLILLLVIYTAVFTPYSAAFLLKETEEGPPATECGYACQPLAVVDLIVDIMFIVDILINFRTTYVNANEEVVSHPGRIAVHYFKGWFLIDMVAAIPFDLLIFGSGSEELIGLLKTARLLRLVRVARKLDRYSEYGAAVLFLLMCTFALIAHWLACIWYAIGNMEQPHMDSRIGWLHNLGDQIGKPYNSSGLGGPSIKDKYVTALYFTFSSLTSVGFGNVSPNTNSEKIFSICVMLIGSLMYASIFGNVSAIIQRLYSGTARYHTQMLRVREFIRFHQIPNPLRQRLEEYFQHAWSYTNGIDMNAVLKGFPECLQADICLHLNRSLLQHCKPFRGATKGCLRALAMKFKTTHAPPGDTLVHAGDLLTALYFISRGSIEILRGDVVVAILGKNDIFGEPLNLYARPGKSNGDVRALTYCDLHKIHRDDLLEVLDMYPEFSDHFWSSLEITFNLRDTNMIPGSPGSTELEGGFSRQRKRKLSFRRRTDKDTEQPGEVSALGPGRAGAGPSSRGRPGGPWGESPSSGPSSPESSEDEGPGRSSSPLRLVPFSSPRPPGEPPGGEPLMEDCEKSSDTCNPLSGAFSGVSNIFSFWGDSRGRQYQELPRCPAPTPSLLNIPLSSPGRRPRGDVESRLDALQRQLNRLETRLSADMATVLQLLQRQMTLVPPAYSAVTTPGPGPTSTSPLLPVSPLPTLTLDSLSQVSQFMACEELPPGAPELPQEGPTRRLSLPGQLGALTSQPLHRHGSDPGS

First: COc1cccc(N2CCN(c3ncnc4c3[nH]c3ccc(F)cc34)CC2C)c1 (centres unmarked)
Second: Cc1noc(C)c1COc1ccc(C(=O)N2CCN(c3ccccc3O)CC2)cc1
The “hERG current change (%, negative = inhibition) at 10uM” value of the first is higher: -5.82% for the first, -14.4% for the second.

First: O=C(C1CCCC1)N1CCN=C1SCc1cccc([N+](=O)[O-])c1
Second: CC(=O)N1N=C(c2ccccc2)CC1c1cccc([N+](=O)[O-])c1 (centres unmarked)
The “hERG current change (%, negative = inhibition) at 10uM” value of the first is higher: -19.3% for the first, -27.3% for the second.

First: COc1ccc(CCNC(=O)C2CCN(S(=O)(=O)c3ccc(C)cc3)CC2)cc1
Second: C=C(C)CN(CC)C(=O)COc1ccc(S(=O)(=O)Nc2ccc(OC)cc2)cc1
The “hERG current change (%, negative = inhibition) at 10uM” value of the first is higher: 0.741% for the first, -7.21% for the second.

Compared with `COc1ccccc1P(=O)(Cc1ccccc1[N+](=O)[O-])c1ccccc1` (centres unmarked), `CN(c1ccccc1)S(=O)(=O)c1cccc(NC(=O)COc2ccccc2)c1` is lower in “hERG current change (%, negative = inhibition) at 10uM” value: -16.2% for the first, -19.7% for the second.

Going from `[O-]/C(=C(\C(=S)NCc1ccc2c(c1)OCO2)[n+]1ccccc1)c1ccc(Cl)s1` to `O=C(CSc1nnc(-c2cccs2)n1-c1ccccc1)c1ccc2c(c1)OCCO2`, the “hERG current change (%, negative = inhibition) at 10uM” value falls from 20.7% to 2.84%.

First: CCOc1nc(NCCO)nc(Nc2ccccc2F)n1
Second: Cc1ccc(OCC(=O)Nc2ccccc2F)cc1
The “hERG current change (%, negative = inhibition) at 10uM” value of the first is higher: 26.4% for the first, -0.548% for the second.

Going from `CCCCCc1ccc(CC(=O)O)cc1` to `CCc1ccc(CNCCSc2nnnn2C)cc1.Cl`, the “hERG current change (%, negative = inhibition) at 10uM” value falls from 11.4% to -20.4%.

Compared with `CCCCc1c(C)nc2ccc(C(=O)OCC)cc2c1Cl`, `CCOc1ncccc1C(=O)OCC(=O)Nc1c(C)cc(C)cc1C` is lower in “hERG current change (%, negative = inhibition) at 10uM” value: 14.2% for the first, -1.23% for the second.

First: Cc1ncoc1C(=O)N1CCCC(C(=O)c2ccc(-c3ccccc3)c(F)c2)C1 (centres unmarked)
Second: Cc1ccc(C(=O)N2CCCC2)cc1S(=O)(=O)Nc1ccccc1
The “hERG current change (%, negative = inhibition) at 10uM” value of the first is lower: -18.2% for the first, -14.7% for the second.

Compared with `O=C(NCc1cccnc1)c1ccc(COc2ccccc2Br)o1`, `O=C(NC1CCCC1)c1ccc(CSCc2ccccc2F)o1` is lower in “hERG current change (%, negative = inhibition) at 10uM” value: -14.1% for the first, -27.4% for the second.

Compared with `O=C(Nc1nc2ccccc2[nH]1)c1ccc(F)c(S(=O)(=O)N2CCOCC2)c1`, `O=S(=O)(c1cccc(-c2csc(-c3cccnc3)n2)c1)N1CCOCC1` is higher in “hERG current change (%, negative = inhibition) at 10uM” value: -50.3% for the first, -20.2% for the second.

First: Cc1ccc(N/N=C2/CCCNC2=O)cc1
Second: Cc1ccc(NC(=O)CC2S/C(=N/N=C3/NC(=O)CS3)NC2=O)cc1 (centres unmarked)
The “hERG current change (%, negative = inhibition) at 10uM” value of the first is lower: 15.6% for the first, 19.5% for the second.

Compared with `O=C(Nc1ccc(N=Nc2ccccc2)cc1)c1ccc(Cl)cc1Cl`, `O=C(CNCc1ccccc1)Nc1ccc(Cl)cc1` is lower in “hERG current change (%, negative = inhibition) at 10uM” value: 8.91% for the first, 3.34% for the second.

Going from `Cc1cc(C)cc(N(CCC#N)C(=O)COC(=O)C2=COCCO2)c1` to `Cc1cc(C)c2nc(N3CCCN(C(=O)c4ccco4)CC3)c(C#N)cc2c1`, the “hERG current change (%, negative = inhibition) at 10uM” value falls from 2.59% to -38.8%.

Compared with `CCO[C@@H]1OC(C(=O)Nc2ccccc2)=C[C@H](C)[C@H]1CCCO`, `CC(=O)n1cc([C@H]2C=C(C(=O)N3CCOCC3)O[C@@H](OCCCCO)C2)c2ccccc21` is lower in “hERG current change (%, negative = inhibition) at 10uM” value: 1.08% for the first, -17.1% for the second.

Compared with `CCCc1nc2oc3c(=O)[nH]cnc3c2c2c1COC(C)(C)C2`, `CCOC(=O)c1c(C)n(C)c2ccc(O)c(CN3CCN(C)CC3)c12` is lower in “hERG current change (%, negative = inhibition) at 10uM” value: 11.9% for the first, -3.46% for the second.

Compared with `CC(Oc1cc(Cl)ccc1Cl)C(=O)N/N=C\c1ccnn1C` (centres unmarked), `CC(Oc1ccc(Cl)cc1Cl)c1nc(-c2ccccn2)no1` (centres unmarked) is lower in “hERG current change (%, negative = inhibition) at 10uM” value: -9.88% for the first, -34.4% for the second.

First: COC(=O)c1ccsc1NC(=O)CSc1nnnn1-c1ccccc1SC
Second: CCOc1ccccc1NC(=O)CSc1nnnn1Cc1ccccc1
The “hERG current change (%, negative = inhibition) at 10uM” value of the first is higher: -8.01% for the first, -40.5% for the second.

First: O=C(NNC(=O)c1cc(F)c(F)cc1Cl)c1ccc(NS(=O)(=O)c2cccs2)cc1
Second: O=C(Nc1ncc(Cc2cccc(Cl)c2Cl)s1)c1ccc([N+](=O)[O-])cc1
The “hERG current change (%, negative = inhibition) at 10uM” value of the first is higher: 12.2% for the first, -6.54% for the second.

Compared with `COc1ccc(CNCc2cc(OC)ccc2OC)cc1.O=C(O)C(=O)O`, `CC(C)[C@H](NC(=O)c1ccccc1)C(=O)OCC(=O)NCc1ccc(F)cc1` is higher in “hERG current change (%, negative = inhibition) at 10uM” value: -30.3% for the first, 14.4% for the second.

First: O=[N+]([O-])c1ccc(CN2C=NS(=O)(=O)c3ccccc32)cc1
Second: O=C(Cc1ccccc1)NNC1=NS(=O)(=O)c2ccccc21
The “hERG current change (%, negative = inhibition) at 10uM” value of the first is lower: -13.5% for the first, 8.68% for the second.

First: CCc1nnc(NC(=O)c2ccc(S(=O)(=O)N(CCOC)CCOC)cc2)o1
Second: O=C(Nc1nnc(C2CC2)o1)c1ccc(S(=O)(=O)N2CCCCC2)cc1
The “hERG current change (%, negative = inhibition) at 10uM” value of the first is higher: 8.22% for the first, 7.44% for the second.

Compared with `O=C(COC(=O)c1cccc(S(=O)(=O)N2CCc3ccccc32)c1)NC1CCS(=O)(=O)C1` (centres unmarked), `CNS(=O)(=O)c1cccc(C(=O)OCC(=O)N2CCc3ccccc3C2)c1` is lower in “hERG current change (%, negative = inhibition) at 10uM” value: -6.28% for the first, -6.33% for the second.

Compared with `O=C1CCCN1c1ncc(S(=O)(=O)c2ccc([N+](=O)[O-])cc2)s1`, `Cc1ccc(S(=O)(=O)N2CC3CCCC2C3)cc1` (centres unmarked) is lower in “hERG current change (%, negative = inhibition) at 10uM” value: 2.67% for the first, 0.346% for the second.

First: COC(=O)C1CCN(c2cc(=O)n(C3CCCCC3)c(=O)[nH]2)CC1
Second: COC(=O)c1c(NC(=O)C2CCCCC2)sc2c1CCN(C(C)C)C2.Cl
The “hERG current change (%, negative = inhibition) at 10uM” value of the first is higher: -2.99% for the first, -16.5% for the second.

First: CC(O)Cn1cnc2c1c(=O)n(C)c(=O)n2C (centres unmarked)
Second: CC(C)CCN1C(=O)c2ccc(C(=O)Nc3cccc(S(N)(=O)=O)c3)cc2C1=O
The “hERG current change (%, negative = inhibition) at 10uM” value of the first is lower: 0.931% for the first, 7.64% for the second.

First: Cc1ccccc1NC(=S)N(CCN1CCCCC1)Cc1ccco1
Second: Cc1cccc(OCC(O)CN2CCN(c3ccccn3)CC2)c1C.Cl (centres unmarked)
The “hERG current change (%, negative = inhibition) at 10uM” value of the first is higher: -30.2% for the first, -45.5% for the second.

Going from `O=C(NCCCN1CCOCC1)c1ccc(Cl)cc1[N+](=O)[O-]` to `O=[N+]([O-])c1cc(Cl)ccc1Sc1ccccn1`, the “hERG current change (%, negative = inhibition) at 10uM” value falls from 15.5% to 3.65%.

Going from `COc1ccc(NC(=O)CN2C(=O)NC(C)(c3ccc(C)cc3)C2=O)c([N+](=O)[O-])c1` (centres unmarked) to `COc1ccccc1C(=O)NC(=O)Cn1nc(C)c([N+](=O)[O-])c1C`, the “hERG current change (%, negative = inhibition) at 10uM” value falls from -5.16% to -6.14%.

Compared with `CC(NCc1ccncc1)C12CC3CC(CC(C3)C1)C2.Cl` (centres unmarked), `Cc1csc(NC(=O)CSc2ccc3nnc(-c4ccncc4)n3n2)n1` is higher in “hERG current change (%, negative = inhibition) at 10uM” value: -14.3% for the first, 5.89% for the second.

Going from `C/C(=N\NC(=O)c1ccc(C)cc1)C1C(=O)c2ccccc2C1=O` to `CC(=O)NC(=S)Nc1ccc(-c2nc3ccc(C)cc3s2)cc1`, the “hERG current change (%, negative = inhibition) at 10uM” value falls from 15.8% to 13%.

First: Cc1cccc2cc(C#N)c(N3CCN(C)CC3)nc12
Second: N#C/C(=C(/O)CN1CCN(c2ccccc2F)CC1)c1nc(-c2ccc(Cl)cc2)cs1
The “hERG current change (%, negative = inhibition) at 10uM” value of the first is lower: -46% for the first, -2.48% for the second.

First: CCCCn1c(SCc2nc3ccccc3s2)nc2cc(S(N)(=O)=O)ccc21
Second: CC(C)CN(C(=O)CSc1nc2ccccc2o1)c1c(N)n(Cc2ccccc2)c(=O)[nH]c1=O
The “hERG current change (%, negative = inhibition) at 10uM” value of the first is lower: -37.5% for the first, -11.8% for the second.

Compared with `Cc1ccc2cc(NC(=O)CC(CC(=O)O)c3ccccc3)ccc2n1` (centres unmarked), `CC(=O)Nc1ccc(NC(=O)CCCCCn2nnc3ccccc3c2=O)cc1` is higher in “hERG current change (%, negative = inhibition) at 10uM” value: 18.2% for the first, 20.8% for the second.

Going from `COc1ccc(/C=C/C(=O)N(C)C2(C)CCS(=O)(=O)C2)cc1` (centres unmarked) to `COc1ccc(C(=O)Oc2cccnc2)cc1`, the “hERG current change (%, negative = inhibition) at 10uM” value rises from -3.05% to -1.5%.

Compared with `COc1ccc(-c2nc(NC(=O)CSc3nnc4ccccn34)ns2)cc1`, `Cc1ccc(Nc2nc(-c3c(C)nc4ncccn34)cs2)cc1` is lower in “hERG current change (%, negative = inhibition) at 10uM” value: -2.77% for the first, -10.4% for the second.

Going from `O=c1[nH]c(/C=C/c2ccccc2)c([N+](=O)[O-])c(=O)[nH]1` to `Cl.c1coc(C2=NCCc3ccccc32)c1`, the “hERG current change (%, negative = inhibition) at 10uM” value falls from 5.45% to -9.79%.

First: CN1CCC(=NNC(=O)c2ccco2)CC1
Second: CC(=O)Nc1nc2c(s1)CCc1ccccc1-2
The “hERG current change (%, negative = inhibition) at 10uM” value of the first is lower: -3.61% for the first, 17.1% for the second.

Going from `NS(=O)(=O)c1cccc(NC(=O)COC(=O)/C(=C/c2cccs2)c2cccs2)c1` to `O=C(O)CN(c1ccccc1F)S(=O)(=O)c1ccccc1`, the “hERG current change (%, negative = inhibition) at 10uM” value rises from -23% to 29.9%.

First: CC(=O)N(C)c1ccc(NS(=O)(=O)Cc2ccccc2)cc1
Second: CN(C)c1ccc(CNC(=O)CCS(=O)(=O)c2ccc3c(c2)oc(=O)n3C)cc1
The “hERG current change (%, negative = inhibition) at 10uM” value of the first is lower: -8.12% for the first, 9.08% for the second.

Going from `Cc1ccc(CN2CCN(/N=C/c3cccs3)CC2)cc1` to `Cc1ccc2c(c1)N(C(=O)CCC(=O)N1CCc3ccccc3C1)CCO2`, the “hERG current change (%, negative = inhibition) at 10uM” value rises from -38% to -20.4%.

First: CCCNC(=O)NC1CCCc2ccccc21 (centres unmarked)
Second: CC1CCN(C(=O)CN(c2cccc(F)c2)S(C)(=O)=O)CC1
The “hERG current change (%, negative = inhibition) at 10uM” value of the first is higher: 1.35% for the first, -8.32% for the second.

Compared with `NNC(=O)c1cnn(-c2ccccc2)c1-n1cccc1`, `Cc1ccccc1N/C(SCc1ccc(Cl)cc1)=C(/C#N)C(N)=O` is lower in “hERG current change (%, negative = inhibition) at 10uM” value: 0.869% for the first, -10.1% for the second.

Compared with `CCCS(=O)(=O)NCc1cn2c(C)csc2n1`, `COCCNC(=O)CN(C(=O)CCC(=O)Nc1ccccn1)c1ccc(F)c(Cl)c1` is higher in “hERG current change (%, negative = inhibition) at 10uM” value: 0.533% for the first, 4.59% for the second.

`COc1cc2c(-c3ccc4cc[nH]c4c3)c(-c3ccc(C#N)cc3)oc(=O)c2cc1OC` was tested, and the “hERG current change (%, negative = inhibition) at 10uM” value was 12.4%.
